We go through 39 compounds from PubChem BioAssay AID1745853 (National Center for Advancing Translational Sciences (NCATS), 2022).

The other results are listed elsewhere or left out. Shown are side measurements of this screen, not its main read-out; they come without a call.

Test in all cases: Primary Screen for Target Class Profiling of Small Molecule Inhibitors of Methyltransferases
The target of assay [1] is Glycine N-methyltransferase (Homo sapiens) (UniProt Q14749). Conditions: purified enzyme, MTase-Glo SAH luminescence; measured here: GNMT inhibition; at 40 µM; stronger effect = lower value. An outline of the steps: (§1)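 Each enzyme was reacted with SAM and its substrate, with compounds tested once at 40 uM; SAH formed was read by MTase-Glo luminescence.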
Assay [2] deals with Guanidinoacetate N-methyltransferase (Homo sapiens) (UniProt Q14353). Conditions: purified enzyme, MTase-Glo SAH luminescence; measured here: GAMT inhibition; at 40 µM; stronger effect = lower value. An outline of the steps:
as §1

In assay [3] the target is Histamine N-methyltransferase (Homo sapiens) (UniProt P50135). Conditions: purified enzyme, MTase-Glo SAH luminescence; measured here: HNMT inhibition; at 40 µM; stronger effect = lower value. Put shortly:
as §1

Assay [4] concerns the target Nicotinamide N-methyltransferase (Homo sapiens) (UniProt P40261). Conditions: purified enzyme, MTase-Glo SAH luminescence; measured here: NNMT inhibition; at 40 µM; stronger effect = lower value. An outline of the steps:
as §1

Assay [5] concerns the target Phenylethanolamine N-methyltransferase (Homo sapiens) (UniProt P11086). Conditions: purified enzyme, MTase-Glo SAH luminescence; measured here: PNMT inhibition; at 40 µM; stronger effect = lower value. Put shortly: as §1
% is set by controls: 0 for no effect and ±100 for the full control effect.

As for `Cc1cc(F)ccc1NS(=O)(=O)c1ccc2[nH]c3c(c2c1)CCCC3`, the activity change, negative = inhibition in assay [1] is -5.09%; in assay [2], 2.21%; in assay [3], -4.21%; in assay [4], -30.3%; in assay [5] it was -0.434%.

Turning to `COc1ccc(-c2ccc3ncc(Nc4ccncc4)n3n2)cn1`, the activity change, negative = inhibition is -7.58% in assay [1]; -5.45% in assay [2]; -5.7% in assay [3]; -10.8% in assay [4]; 3.3% in assay [5].

Take `Cc1ccc(C)c(S(=O)(=O)c2nnn3c2nc(NCc2ccccc2)c2ccccc23)c1`: the activity change, negative = inhibition in assay [1] was 0.597%; in assay [2], 2.04%; in assay [3], 4.01%; in assay [4] it was 4.19%; in assay [5], -1.34%.

In the case of `Cn1cnc(S(=O)(=O)N2CC(N(C3CCOCC3)S(C)(=O)=O)C2)c1`, the activity change, negative = inhibition in assay [1] amounted to 0.313%; in assay [2] it was 2.48%; in assay [3], 0.601%; in assay [4] it was 0.168%; in assay [5] it was 13.1%.

For the compound `COc1cc(/C=C/C(=O)O[C@H]2[C@@H]3C=CO[C@@H](O[C@@H]4O[C@H](CO)[C@@H](O)[C@H](O)[C@H]4O)[C@@H]3[C@@]3(CO)O[C@@H]23)ccc1O`, the activity change, negative = inhibition is 3.99% in assay [1]; 5.64% in assay [2]; 3.71% in assay [3]; -5.44% in assay [4]; 2.02% in assay [5].

With `Cc1cccc(N2C(=O)c3cc4sccc4n3CC2(C)C(=O)NC2CCCCC2C)c1C` (centres undefined), the activity change, negative = inhibition in assay [1] stood at 0.462%; in assay [2], 0.73%; in assay [3] it was 2.97%; in assay [4] it was 5.79%; in assay [5] it was 0.029%.

Take `CCOc1ccc(N2C(=O)c3c(C(=O)OC)ncn3CC2(C)C(=O)NCCCOC(C)C)cc1` (centres undefined): the activity change, negative = inhibition in assay [1] is -1.3%; in assay [2] it was 0.43%; in assay [3] it was 6.42%; in assay [4] it was 2.67%; in assay [5], 4.59%.

Take `CCCOc1cc2oc(=O)cc(-c3ccccc3)c2cc1Cl`: the activity change, negative = inhibition in assay [1] was -9.64%; in assay [2] it was 2.44%; in assay [3], -4.52%; in assay [4], -22.4%; in assay [5], -9.85%.

Regarding `CCC1CN(Cc2nc(CCOC)no2)CCC(=O)N1Cc1ccccc1` (centres undefined), the activity change, negative = inhibition in assay [1] was -0.382%; in assay [2], -4.09%; in assay [3], -4.89%; in assay [4], 1.33%; in assay [5], -0.931%.

For the compound `CCCN1C(=O)c2cc(C(=O)NCCN(C)C)nn2CC1(C)C(=O)NC1CCCC1` (centres undefined), the activity change, negative = inhibition was 2.27% in assay [1]; 0% in assay [2]; -0.338% in assay [3]; 2.58% in assay [4]; 2.81% in assay [5].

Regarding `CO/N=C(\C(=O)N[C@@H]1C(=O)N2C(C(=O)O)=C(CSc3nc(=O)c(O)nn3C)CSC12)c1csc(N)n1` (some centres undefined), the activity change, negative = inhibition in assay [1] is -18.4%; in assay [2] it was 9.75%; in assay [3], 7.67%; in assay [4], -4.29%; in assay [5], 2.65%.

Take `CC(c1ccccc1)N1C(=O)c2ccc(-c3ccccc3)n2CC1(C)C(=O)NC1CCCCCCC1` (centres undefined): the activity change, negative = inhibition in assay [1] was 0.955%; in assay [2], 2.38%; in assay [3], 0.43%; in assay [4], -4.51%; in assay [5], 1.39%.

Consider `CC1COc2c(N3CCN(C)CC3)c(F)cc3c(=O)c(C(=O)O)cn1c23` (centres undefined), for which the activity change, negative = inhibition is -1.68% in assay [1]; 9.05% in assay [2]; 5.5% in assay [3]; -3.49% in assay [4]; 4.38% in assay [5].

For the compound `COc1ccc(CNc2nccc(CCC(F)(F)F)n2)cc1OC`, the activity change, negative = inhibition in assay [1] was -3.84%; in assay [2], -1.99%; in assay [3] it was -0.328%; in assay [4], -9.05%; in assay [5] it was 1.8%.

For the compound `O=C(/C=C/N1C[C@H]2C[C@@H]1CN2c1ccccn1)c1ccccc1O`, the activity change, negative = inhibition is 6.56% in assay [1], 6.48% in assay [3], -6.89% in assay [4] and -0.165% in assay [5].

`CC(=O)c1ccc(Nc2nc3c(S(=O)(=O)c4ccccc4)nnn3c3ccccc23)cc1`: the activity change, negative = inhibition came out at 0.132% in assay [1]; 0% in assay [2]; 2.29% in assay [3]; 7.35% in assay [4]; 1.85% in assay [5].

With `O=c1[nH]c2cccnc2n1CCc1ccccc1`, the activity change, negative = inhibition in assay [1] is -21.7%; in assay [2], -18.9%; in assay [3], -8.65%; in assay [4] it was -25.3%; in assay [5], -20.1%.

For `CN1C[C@H]2CNC[C@@]2(C(=O)NCc2ccccc2OCc2ccccc2)C1`, the activity change, negative = inhibition in assay [1] is 2.48%; in assay [2] it was 0.707%; in assay [3], -4.72%; in assay [4], -1.18%; in assay [5] it was -4.18%.

Consider `COc1ccc([C@@H](NC(=O)c2cc3ncccn3n2)C2CC(O)C2)cn1` (some centres undefined), for which the activity change, negative = inhibition in assay [1] was -5.74%; in assay [2], -5.76%; in assay [3], -4.03%; in assay [4] it was -11.5%; in assay [5], -6.1%.

Regarding `CC(C)CCn1c(=O)c2ccc(C(=O)NC3CCCC3)cc2n2c(=O)[nH]nc12`, the activity change, negative = inhibition in assay [1] is -2.96%; in assay [2], 0%; in assay [3], 4.83%; in assay [4], -1.78%; in assay [5], -5.49%.

Turning to `CC(C)CN1C(=O)c2cccn2CC1CN` (centres undefined), the activity change, negative = inhibition in assay [1] is -2.45%; in assay [2] it was 0.732%; in assay [3], -3.73%; in assay [4], -5.42%; in assay [5] it was 11.9%.

Regarding `Cc1ccc(NC(=O)N2CCn3cccc3C2C)c(C)c1` (centres undefined), the activity change, negative = inhibition in assay [1] was -13.2%; in assay [2], -2.13%; in assay [3] it was -12.3%; in assay [4] it was -18%; in assay [5], -10.7%.

On to `Cn1c(=O)c2ccc(C(=O)NC3CCCCC3)cc2n2c(=O)n(CC(=O)Nc3ccccc3F)nc12`, for which the activity change, negative = inhibition was 4.21% in assay [1]; 0% in assay [2]; 11.4% in assay [3]; -2.23% in assay [4]; 2.67% in assay [5].

As for `COCC1CCN(C(=O)[C@@H]2CN(c3cnccn3)C[C@H]2COC)CC1`, the activity change, negative = inhibition in assay [1] was -2.5%; in assay [2], -4.12%; in assay [3], 0.056%; in assay [4], -7.95%; in assay [5], -5%.

Turning to `O=C1c2cc3sccc3n2CC(C(=O)NC2CCCCCC2)(c2ccccc2)N1Cc1ccc2c(c1)OCO2` (centres undefined), the activity change, negative = inhibition in assay [1] is 3.45%; in assay [2], 0%; in assay [3] it was 1.83%; in assay [4] it was 0.849%; in assay [5] it was -2.43%.

As to `c1ccc(CN2CCC[C@H]2c2nc(-c3ccc(N4CCOCC4)nc3)no2)cc1`, the activity change, negative = inhibition in assay [1] was -4.08%; in assay [2], 1.45%; in assay [3], 0.834%; in assay [4], 1%; in assay [5] it was -0.731%.

For the compound `CCS(=O)(=O)N1CCC(Oc2cccc(C(=O)NCc3ccccn3)c2)CC1`, the activity change, negative = inhibition in assay [1] was -1.52%; in assay [2], -4.21%; in assay [3], -2.84%; in assay [4], -12.2%; in assay [5], -4.99%.

`CC1(C(=O)NCc2ccccc2)Cn2c(cc3ccccc32)C(=O)N1Cc1ccccc1F` (centres undefined): the activity change, negative = inhibition in assay [1] was 0.547%; in assay [2], 1.34%; in assay [3] it was 0.593%; in assay [4], -5.39%; in assay [5] it was -0.588%.

As for `COc1ccccc1CN1CCC(N2CC3CCCN3C2=O)CC1` (centres undefined), the activity change, negative = inhibition is -4.26% in assay [1]; -6.13% in assay [2]; -7.32% in assay [3]; -12.7% in assay [4]; 2.76% in assay [5].

For `Cc1noc(C)c1[S+](=O)([O-])N(C)Cc1ccc(-c2ccccc2)cc1`, the activity change, negative = inhibition in assay [1] is -4.79%; in assay [2], -4.28%; in assay [3], -0.096%; in assay [4], -7.09%; in assay [5] it was -21.4%.

On to `O=C1c2cc3occc3n2CC(C(=O)NC2CCCCCCC2)(c2ccccc2)N1Cc1cccc(F)c1` (centres undefined), for which the activity change, negative = inhibition in assay [1] is 0.266%; in assay [2] it was 3.85%; in assay [3], -1.25%; in assay [4], -1.82%; in assay [5], -5.69%.

In the case of `COc1ccc(-c2n[nH]n3c2nc(=O)c2ccc(C(=O)NCc4cccnc4)cc23)cc1`, the activity change, negative = inhibition in assay [1] is -3.86%; in assay [2], 2.51%; in assay [3] it was -1.13%; in assay [4], 0.668%; in assay [5] it was -0.251%.

For `CN(C)CCN1C(=O)c2ccc(-c3ccco3)n2CC1(C)C(=O)NC1CCCCCCC1` (centres undefined), the activity change, negative = inhibition in assay [1] was determined as 1.43%; in assay [2] it was 1.79%; in assay [3] it was 4.45%; in assay [4] it was 3.24%; in assay [5], 0.454%.

Consider `CC(CN1C(=O)c2nc3ccccc3n2CC1(C)C(=O)NC1CCCC1)c1ccccc1` (centres undefined), for which the activity change, negative = inhibition in assay [1] is 4.75%; in assay [2] it was 0%; in assay [3] it was 4.5%; in assay [4], 0.842%; in assay [5], -1.71%.

In the case of `Cc1ccc(NC(=O)c2cc3n(n2)CC(C)(C(=O)NC2CCCCCC2)N(C)C3=O)c(C)c1` (centres undefined), the activity change, negative = inhibition in assay [1] was -0.394%; in assay [2], 1.36%; in assay [3], 1.49%; in assay [4], 0.199%; in assay [5] it was -1.2%.

In the case of `COC(=O)C12CCC(C)C(C)C1C1=CCC3C4(C)CCC(OC(C)=O)C(C)(C)C4CCC3(C)C1(C)CC2` (centres undefined), the activity change, negative = inhibition in assay [1] is -0.014%; in assay [2] it was 2.78%; in assay [3], 2.61%; in assay [4], -10.1%; in assay [5] it was 4.71%.

For `COc1ccc(-c2noc(CC3CCN(C(=O)c4cc(F)ccc4F)CC3)n2)cc1`, the activity change, negative = inhibition in assay [1] is -8.64%; in assay [2], -3.78%; in assay [3] it was 0.697%; in assay [4] it was -4.54%; in assay [5], -4.64%.

For `Cc1ccc(-c2n[nH]n3c2nc(=O)c2ccc(C(=O)NCCc4ccc(Cl)cc4)cc23)cc1`, the activity change, negative = inhibition in assay [1] was -1.58%; in assay [2], 0%; in assay [3] it was 8.3%; in assay [4], 3.84%; in assay [5] it was 2.76%.

In the case of `O=C(c1cc(F)ccc1F)N1CC(c2nc(CCc3ccccc3)no2)C1`, the activity change, negative = inhibition in assay [1] was 0.46%; in assay [2], 1.69%; in assay [3], 2.16%; in assay [4] it was -0.531%; in assay [5], -3.23%.
